# According to PubChem BioAssay (Tox21):
# Where “and” joins values, the source holds several entries; their conditions need not be identical. Identical values can stand only once. Inconclusive means that the source gave no clear call. Such entries were picked first, then a sample of the others. Potencies beside an inconclusive call are fits to weak or partial responses and may not hold up. A structure can be active in one record and inactive in another. Calls of active or inactive are those of the source. Unless noted, calls come from the whole dose curve; as a rule, active = well fitted curve in the direction sought with a large enough effect in the repeat runs; inconclusive = weak or mixed curves; inactive = no such curve, though single readings can be large; an effect the other way counts as inactive or inconclusive.
# Experiments:
# [1] = qHTS assay to identify small molecule antagonists of the peroxisome proliferator-activated receptor gamma (PPARg) signaling pathway - cell viability counter screen (AID 743194); conditions: PPARg-bla HEK293H viability, CellTiter-Glo luminescence, 17 h; Potency: co-treated with 50 nM rosiglitazone unless noted; activity change, negative = cytotoxicity: at 62.6 µM (top of the series), co-treated with 50 nM rosiglitazone unless noted; note: nearly all actives have a fitted effect of over 55% in size; for activity change, negative = cytotoxicity: % is set by controls: 0 for no effect and ±100 for the full control effect
# How it was run: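 Viability was measured as CellTiter-Glo luminescence in GeneBLAzer PPARg UAS-bla HEK293H cells. These cells had been exposed 17 h at 37 C to compounds together with rosiglitazone at 50 nM final, with the beta-lactamase readout taken in the same wells.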
# [2] = qHTS assay for small molecule agonists of the antioxidant response element (ARE) signaling pathway (AID 743202; active = well fitted activation curve with a large enough effect in the signal ratio in the repeat runs, not every such curve was filed as active; inconclusive = weak or mixed curves, or effect the other way; inactive = no such curve, though single readings can be large or run the other way; the % refers to the signal ratio; for activation: % is set by controls: 0 for no effect and ±100 for the full control effect); conditions: HepG2 ARE-bla reporter, beta-lactamase FRET, 16 h; activation: at 73.3 µM (top of the series) unless noted
# How it was run: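 Quantitative high-throughput format in HepG2 cells bearing an integrated ARE-beta-lactamase reporter. Compound exposure lasted 16 h at 37 C, and fluorescence was read 2 h after adding LiveBLAzer B/G substrate at room temperature.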
# [3] = qHTS assay for small molecule agonists of the antioxidant response element (ARE) signaling pathway - cell viability counter screen (AID 743203; calls by dose curve; note: nearly all actives have a fitted effect of over 55% in size); conditions: ARE-bla HepG2 viability, CellTiter-Glo luminescence, 16 h; viability change, negative = cytotoxic: at 73.3 µM (top of the series)
# How it was run: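 HepG2 cells carrying ARE-driven beta-lactamase; 2,000 cells/well; 5 hrs plating; compound pinned from DMSO; 16 hrs 37C/5% CO2; CellTiter-Glo added; 30 min RT; luminescence.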
# [4] = qHTS assay for small molecule activators of the heat shock response signaling pathway - cell viability counter screen (AID 743209); conditions: HSE-bla HeLa viability, CellTiter-Glo luminescence, 5 h; activity change, negative = cytotoxicity: at 62.6 µM (top of the series) unless noted; note: nearly all actives have a fitted effect of over 50% in size; for activity change, negative = cytotoxicity: % is set by controls: 0 for no effect and ±100 for the full control effect
# How it was run: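 Luminescence from CellTiter-Glo, added after the beta-lactamase FRET read, gave the viability signal. Cells were HSE-bla HeLa treated with DMSO-dissolved compounds for 5 h at 37 C following overnight plating.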
# [5] = qHTS assay for small molecule activators of the heat shock response signaling pathway (AID 743210; active = well fitted activation curve with a large enough effect in the signal ratio in the repeat runs, with a control signal flat, not every such curve was filed as active; inconclusive = weak or mixed curves; the % refers to the signal ratio); conditions: HeLa HSE-bla reporter, beta-lactamase ratio, 5 h; activation: at 62.6 µM (top of the series) unless noted
# How it was run: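 HeLa HSE-bla cells, overnight plating; cpd in DMSO 5 h, 37 C; LiveBLAzer B/G FRET substrate 2.5 h RT; fluorescence intensity read.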
# [6] = qHTS assay to identify small molecule agonists of the peroxisome proliferator-activated receptor delta (PPARd) signaling pathway - cell viability counter screen (AID 743211); conditions: PPARd-bla HEK293H viability, CellTiter-Glo luminescence, 17 h; activity change, negative = cytotoxicity: at 62.6 µM (top of the series); note: nearly all actives have a fitted effect of over 55% in size
# How it was run: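 PPARd-bla HEK293H cells (3000/well) were pre-incubated 5 h at 37 C, then exposed to compound for 17 h at 37 C. After 2 h with LiveBLAzer substrate, CellTiter-Glo was added to the same wells; luminescence read after 30 min at room temperature.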
# [7] = biological target: Peroxisome proliferator-activated receptor delta (Homo sapiens) (UniProt Q03181); assay: qHTS assay to identify small molecule agonists of the peroxisome proliferator-activated receptor delta (PPARd) signaling pathway (AID 743212; calls by dose curve; for activation: % is set by controls: 0 for no effect and ±100 for the full control effect); conditions: HEK293H PPARd-UAS-bla, beta-lactamase FRET ratio, 17 h; activation: at 62.6 µM (top of the series) unless noted
# Sequence of UniProt Q03181 (Q03181 whole entry, looked up): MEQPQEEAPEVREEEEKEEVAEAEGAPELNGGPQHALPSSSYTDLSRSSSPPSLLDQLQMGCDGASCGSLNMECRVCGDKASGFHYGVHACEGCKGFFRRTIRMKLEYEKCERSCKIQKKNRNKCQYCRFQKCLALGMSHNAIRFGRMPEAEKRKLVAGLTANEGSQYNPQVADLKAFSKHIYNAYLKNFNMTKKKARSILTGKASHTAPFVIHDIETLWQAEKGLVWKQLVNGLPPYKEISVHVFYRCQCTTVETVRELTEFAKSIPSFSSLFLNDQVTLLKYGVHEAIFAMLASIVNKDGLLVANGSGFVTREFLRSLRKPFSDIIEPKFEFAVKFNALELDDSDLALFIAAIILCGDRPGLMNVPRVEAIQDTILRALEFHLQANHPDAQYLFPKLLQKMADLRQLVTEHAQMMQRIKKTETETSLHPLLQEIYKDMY
# How it was run: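 HEK293H PPARd-bla cells; 5 h preincubation 37 C/5% CO2; compound (DMSO) 37 C; LiveBLAzer B/G FRET substrate 2 h RT; fluorescence intensity.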
# [8] = biological target: Peroxisome proliferator-activated receptor delta (Homo sapiens) (UniProt Q03181); assay: qHTS assay to identify small molecule antagonists of the peroxisome proliferator-activated receptor delta (PPARd) signaling pathway (AID 743215; active = well fitted inhibition curve with a large enough effect in the signal ratio in the repeat runs, not every such curve was filed as active; inconclusive = weak or mixed curves, or effect the other way; inactive = no such curve, though single readings can be large or run the other way; the % refers to the signal ratio;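 note: cells stimulated with agonist L165041 at 300 nM final during compound exposure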); conditions: HEK293H PPARd-UAS-bla, beta-lactamase FRET ratio, antagonist, 17 h; ratio activity, negative = inhibition: at 62 µM (top of the series) unless noted
# How it was run: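 Read-out is beta-lactamase FRET fluorescence, measured 2 h after substrate addition at room temperature. Beforehand, UAS-bla HEK293H cells carrying the PPARd reporter were exposed to compounds with L165041 at 300 nM final for 17 h at 37 C.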
# [9] = qHTS assay to identify small molecule antagonists of the peroxisome proliferator-activated receptor delta (PPARd) signaling pathway - cell viability counter screen (AID 743213); conditions: PPARd-bla HEK293H viability, CellTiter-Glo luminescence, 17 h; viability change, negative = cytotoxic: at 62 µM (top of the series) unless noted; note: nearly all actives have a fitted effect of over 50% in size
# How it was run: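 Viability counter-screen, qHTS format: PPARd-bla HEK293H, L165041 300 nM final, 17 h compound exposure at 37 C, CellTiter-Glo luminescence after 30 min RT.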
# [10] = biological target: Bile acid receptor (Homo sapiens) (UniProt Q96RI1); assay: qHTS assay to identify small molecule antagonists of the farnesoid-X-receptor (FXR) signaling pathway (AID 743217; active = well fitted inhibition curve with a large enough effect in the signal ratio in the repeat runs, not every such curve was filed as active; inconclusive = weak or mixed curves, or effect the other way; inactive = no such curve, though single readings can be large or run the other way; the % refers to the signal ratio); conditions: HEK293T FXR-UAS-bla, beta-lactamase ratio, CDCA-stimulated, 16 h; activity change, negative = inhibition: at 62.6 µM (top of the series) unless noted
# Sequence of UniProt Q96RI1 (Q96RI1 whole entry, looked up): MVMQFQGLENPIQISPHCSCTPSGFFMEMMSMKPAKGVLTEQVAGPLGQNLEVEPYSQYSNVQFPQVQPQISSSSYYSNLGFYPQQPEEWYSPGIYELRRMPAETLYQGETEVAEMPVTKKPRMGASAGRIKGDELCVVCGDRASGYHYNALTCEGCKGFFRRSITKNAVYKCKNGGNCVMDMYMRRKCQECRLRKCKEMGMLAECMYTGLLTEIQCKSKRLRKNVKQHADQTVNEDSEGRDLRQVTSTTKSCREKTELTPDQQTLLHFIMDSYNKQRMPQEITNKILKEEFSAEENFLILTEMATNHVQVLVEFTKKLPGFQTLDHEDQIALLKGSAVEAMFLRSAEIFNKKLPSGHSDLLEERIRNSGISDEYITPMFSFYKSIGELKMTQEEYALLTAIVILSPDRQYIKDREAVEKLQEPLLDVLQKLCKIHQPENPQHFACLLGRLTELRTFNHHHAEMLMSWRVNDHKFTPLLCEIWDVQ
# How it was run: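 HEK 293T FXR-UAS-bla, 5000 cells/well; compound + CDCA 50 uM final; 16 h, 37 °C; B/G FRET substrate 2 h RT; fluorescence.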
# Potency is the fitted concentration of half-maximal effect; tags give direction and shape of the fitted curve or compound fluorescence and quenching.
smiles,measurement,setting,value
O=[N+]([O-])c1cc([N+](=O)[O-])c2ccccc2c1,Potency,[1],"inconclusive: 0.549 µM [rising, full curve, poor fit]"
same,Potency,[2],"inconclusive: 0.077 µM [falling, full curve]"
same,Potency,[3],"inconclusive: 15.4 µM [rising, full curve, poor fit]"
same,Potency,[4],"inconclusive: 0.0545 µM [cytotoxic, full curve, poor fit]"
same,Potency,[5],"inconclusive: 54.9 µM [falling, partial curve, poor fit]"
same,Potency,[6],"inconclusive: 61.6 µM [cytotoxic, single point]"
same,Potency,[7],"inconclusive: 43.6 µM [rising, partial curve, poor fit]"
same,Potency,[8],"inconclusive: 0.0436 µM [fluorescent, full curve, poor fit]"
CCCC[P+](CC)(CCCC)CCCC (tested in a mixture with another compound),Potency,[1],inactive
CCCCCCCCCc1ccc(O)cc1,Potency,[1],"inconclusive: 62.3 µM [cytotoxic, single point]"
same,Potency,[2],inconclusive: 61.8 µM [single point]
same,Potency,[3],"inconclusive: 69.3 µM [cytotoxic, single point]"
same,Potency,[4],"inconclusive: 62.3 µM [cytotoxic, single point]"
same,Potency,[5],inconclusive: 33.1 µM
same,activation,[7],inconclusive: -1.47% [at 81.1 µM]
CCCCCCCCCCCCCCCCCCn1cc[n+](C)c1,Potency,[1],"inconclusive: 13.7 µM [cytotoxic, full curve, poor fit] [setting not given]"
same,Potency,[2],"inconclusive: 17.1 µM [falling, partial curve]"
same,Potency,[3],active: 15.3 µM
same,Potency,[4],active: 43.4 µM
same,Potency,[5],inconclusive: 56.8 µM
same,Potency,[6],active: 10.9 µM
same,Potency,[7],"inconclusive: 54.6 µM [falling, single point]"
same,Potency,[9],active: 7.72 µM
same,Potency,[8],active: 19.4 µM
same,Potency,[10],"inconclusive: 38.7 µM [cytotoxic, single point]"
Clc1ccc(C(c2ccc(Cl)cc2)C(Cl)(Cl)Cl)cc1,Potency,[1],"inconclusive: 44 µM [cytotoxic, partial curve, poor fit]"
same,Potency,[2],"inconclusive: 15.4 µM [rising, partial curve, poor fit] and inconclusive: 29.8 µM [rising, partial curve, poor fit]"
same,activation,[2],inconclusive: 53.9% [at 94.8 µM]
same,Potency,[4],active: 55.3 µM and active: 54.9 µM and inactive
same,Potency,[5],inconclusive: 57 µM and inconclusive: 52.9 µM
same,Potency,[6],"inconclusive: 33.5 µM [cytotoxic, single point]"
same,activation,[7],inconclusive: 16.8% [at 81.1 µM]
same,"ratio activity, negative = inhibition",[8],inconclusive: 1.49%
C=CC(=O)OCCCCOC(=O)C=C,Potency,[1],"inconclusive: 34.7 µM [cytotoxic, partial curve, poor fit]"
same,Potency,[2],active: 27.3 µM
same,Potency,[3],"inconclusive: 68.6 µM [cytotoxic, partial curve, poor fit]"
same,Potency,[4],active: 5.49 µM
same,Potency,[5],inconclusive: 26.5 µM
same,Potency,[6],active: 49 µM
same,Potency,[7],inconclusive: 61.6 µM [single point]
same,Potency,[9],active: 43.6 µM
same,"ratio activity, negative = inhibition",[8],inconclusive: -92.5%
same,Potency,[10],inconclusive: 61.6 µM [single point]
N#CN=C1SCCN1Cc1ccc(Cl)nc1,Potency,[1],"inconclusive: 0.049 µM [rising, partial curve, poor fit]"
same,Potency,[2],inactive
O=C1C(Cl)=C(Cl)C(=O)C(Cl)=C1Cl,Potency,[1],"inconclusive: 7.73 µM [cytotoxic, full curve, poor fit]"
same,Potency,[2],"inconclusive: 8.63 µM [falling, full curve]"
same,activation,[2],inconclusive: -5.4%
same,Potency,[4],"inconclusive: 3.89 µM [cytotoxic, full curve]"
same,Potency,[5],inconclusive: 27.4 µM and inconclusive: 9.05 µM
same,Potency,[6],"inconclusive: 17.3 µM [cytotoxic, partial curve]"
same,activation,[7],inconclusive: 1.74%
same,Potency,[9],"inconclusive: 12.3 µM [cytotoxic, full curve] and active: 13.8 µM"
O=C1C(I)=CC(=C(c2cc(I)c(O)c(I)c2)c2ccccc2C(=O)O)C=C1I,Potency,[1],"inconclusive: 23.7 µM [cytotoxic, partial curve]"
same,Potency,[2],"inconclusive: 33.5 µM [rising, single point]"
same,Potency,[3],"inconclusive: 33.5 µM [cytotoxic, partial curve, poor fit]"
same,Potency,[4],"inconclusive: 2.66 µM [cytotoxic, partial curve, poor fit]"
same,Potency,[6],"inconclusive: 29.8 µM [cytotoxic, partial curve, poor fit]"
same,"activity change, negative = inhibition",[10],inconclusive: -24.6%
CCOP(=S)(OCC)Oc1nc(Cl)c(Cl)cc1Cl,Potency,[1],"inconclusive: 61.8 µM [cytotoxic, single point]"
same,Potency,[2],inconclusive: 61.3 µM
same,activation,[2],inconclusive: 20.7%
same,Potency,[6],inconclusive: 61.8 µM [cytotoxic]
